Source: PMC8166750 (The Journal of Biological Chemistry, 2021)
Where a chain is given by its changes, count along the chain named.

What was measured:
homomeric mammalian P2X5 = homomeric mammalian P2X5 (Homo sapiens, UniProt Q93086); assay: ATP current in cells expressing homomeric receptor; assay type: cell-based
hP2X7^E121A = target: T1, hP2X7^E121A (Homo sapiens, UniProt Q99572, E121A); assay: ATP concentration-response, perforated patch clamp in HEK293 cells; assay type: cell-based
T1 sequence (Q99572 1-595 E121A): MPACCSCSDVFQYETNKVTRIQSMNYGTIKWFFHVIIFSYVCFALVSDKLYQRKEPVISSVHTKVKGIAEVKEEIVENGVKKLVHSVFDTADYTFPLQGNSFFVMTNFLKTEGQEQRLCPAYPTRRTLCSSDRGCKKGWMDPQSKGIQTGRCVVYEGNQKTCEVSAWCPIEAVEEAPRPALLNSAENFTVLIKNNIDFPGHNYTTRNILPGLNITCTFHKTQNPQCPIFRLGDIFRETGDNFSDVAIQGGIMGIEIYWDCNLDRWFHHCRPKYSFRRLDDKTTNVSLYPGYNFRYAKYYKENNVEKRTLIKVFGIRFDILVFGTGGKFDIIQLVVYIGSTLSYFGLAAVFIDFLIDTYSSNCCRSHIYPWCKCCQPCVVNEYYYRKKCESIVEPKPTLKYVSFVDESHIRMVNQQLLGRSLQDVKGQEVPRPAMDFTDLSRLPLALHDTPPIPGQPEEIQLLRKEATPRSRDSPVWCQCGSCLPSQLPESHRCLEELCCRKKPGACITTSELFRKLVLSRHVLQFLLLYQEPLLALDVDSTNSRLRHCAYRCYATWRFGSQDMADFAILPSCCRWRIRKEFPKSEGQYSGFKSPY

zfP2X4^E121A = target: T2, zfP2X4^E121A (Danio rerio, UniProt F8W463, E121A); assay: cell-based
T2 sequence (F8W463 1-389 E121A): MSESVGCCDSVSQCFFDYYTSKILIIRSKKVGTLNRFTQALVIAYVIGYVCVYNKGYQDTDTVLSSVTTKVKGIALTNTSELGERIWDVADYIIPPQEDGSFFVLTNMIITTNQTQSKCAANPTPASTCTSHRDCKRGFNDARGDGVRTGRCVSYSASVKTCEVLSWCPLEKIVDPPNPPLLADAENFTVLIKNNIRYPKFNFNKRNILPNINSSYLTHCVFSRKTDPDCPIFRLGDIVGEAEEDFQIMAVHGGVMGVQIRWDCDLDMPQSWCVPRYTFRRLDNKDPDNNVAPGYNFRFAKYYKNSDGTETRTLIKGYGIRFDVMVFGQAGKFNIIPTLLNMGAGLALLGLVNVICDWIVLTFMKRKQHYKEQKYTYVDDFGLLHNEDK

homomeric mammalian P2X6 = homomeric mammalian P2X6 (Homo sapiens, UniProt O15547); assay: ATP current in cells expressing homomeric receptor; assay type: cell-based
UniProt O15547, sequence (O15547 whole entry): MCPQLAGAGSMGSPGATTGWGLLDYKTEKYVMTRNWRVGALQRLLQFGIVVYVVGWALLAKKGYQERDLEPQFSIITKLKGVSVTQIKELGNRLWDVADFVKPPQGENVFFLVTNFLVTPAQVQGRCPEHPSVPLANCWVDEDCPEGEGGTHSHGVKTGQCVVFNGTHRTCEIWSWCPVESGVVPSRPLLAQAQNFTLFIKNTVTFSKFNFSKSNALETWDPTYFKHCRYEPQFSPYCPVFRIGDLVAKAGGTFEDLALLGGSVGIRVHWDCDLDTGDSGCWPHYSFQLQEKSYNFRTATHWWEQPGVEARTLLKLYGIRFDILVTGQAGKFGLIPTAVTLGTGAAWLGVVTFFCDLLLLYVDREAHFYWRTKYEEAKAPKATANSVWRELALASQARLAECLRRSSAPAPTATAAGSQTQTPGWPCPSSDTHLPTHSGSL

hP2X2^E127A = target: T3, hP2X2^E127A (Homo sapiens, UniProt Q9UBL9, E127A); assay: ATP concentration-response, perforated patch clamp in HEK293 cells; assay type: cell-based
T3 sequence (Q9UBL9 1-471 E127A): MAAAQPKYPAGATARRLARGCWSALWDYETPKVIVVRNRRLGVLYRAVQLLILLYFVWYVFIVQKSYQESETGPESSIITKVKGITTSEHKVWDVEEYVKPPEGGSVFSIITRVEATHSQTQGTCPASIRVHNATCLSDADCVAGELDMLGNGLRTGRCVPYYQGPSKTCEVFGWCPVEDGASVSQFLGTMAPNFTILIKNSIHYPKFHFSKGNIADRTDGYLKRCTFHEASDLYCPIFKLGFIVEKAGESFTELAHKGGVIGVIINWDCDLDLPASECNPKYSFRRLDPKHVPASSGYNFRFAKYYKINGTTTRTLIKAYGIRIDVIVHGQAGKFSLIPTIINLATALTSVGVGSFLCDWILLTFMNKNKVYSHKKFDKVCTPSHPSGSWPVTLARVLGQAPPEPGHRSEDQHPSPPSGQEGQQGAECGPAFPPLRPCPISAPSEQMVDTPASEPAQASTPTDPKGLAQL

hP2X1^WT = target: T4, hP2X1^WT (Homo sapiens, UniProt P51575); assay: as above; assay type: cell-based
T4 sequence (P51575 1-399): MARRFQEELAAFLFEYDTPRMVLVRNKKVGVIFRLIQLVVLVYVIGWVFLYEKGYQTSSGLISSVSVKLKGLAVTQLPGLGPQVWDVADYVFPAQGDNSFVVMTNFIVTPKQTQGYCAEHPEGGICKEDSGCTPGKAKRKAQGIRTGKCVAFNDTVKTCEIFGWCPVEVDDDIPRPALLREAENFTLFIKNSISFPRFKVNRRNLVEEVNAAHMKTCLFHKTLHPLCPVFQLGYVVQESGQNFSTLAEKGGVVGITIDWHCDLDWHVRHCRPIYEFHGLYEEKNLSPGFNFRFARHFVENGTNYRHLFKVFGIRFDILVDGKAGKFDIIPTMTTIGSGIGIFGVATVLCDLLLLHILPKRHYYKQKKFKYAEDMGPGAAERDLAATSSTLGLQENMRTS

hP2X7^WT = target: T5, hP2X7^WT (Homo sapiens, UniProt Q99572); assay: as above; assay type: cell-based
T5 sequence (Q99572 1-595): T1 sequence (Q99572 1-595 E121A) with A121E

UniProt Q93086, sequence (Q93086 whole entry): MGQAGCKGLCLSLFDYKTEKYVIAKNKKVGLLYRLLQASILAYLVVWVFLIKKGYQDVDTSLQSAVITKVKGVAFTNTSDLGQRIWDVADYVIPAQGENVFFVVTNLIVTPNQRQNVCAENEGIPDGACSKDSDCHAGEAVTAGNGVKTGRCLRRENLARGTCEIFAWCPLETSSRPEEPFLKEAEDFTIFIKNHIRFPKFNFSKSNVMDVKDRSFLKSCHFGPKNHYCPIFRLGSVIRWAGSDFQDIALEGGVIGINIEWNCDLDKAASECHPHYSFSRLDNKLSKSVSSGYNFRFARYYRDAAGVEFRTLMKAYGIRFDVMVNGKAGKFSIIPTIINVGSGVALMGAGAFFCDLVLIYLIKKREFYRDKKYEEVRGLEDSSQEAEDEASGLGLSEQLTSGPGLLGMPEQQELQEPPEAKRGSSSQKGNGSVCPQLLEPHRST

Nc1ncnc2c1ncn2[C@@H]1O[C@H](COP(=O)(O)OP(=O)(O)OP(=O)(O)O)[C@@H](O)[C@H]1O [ATP]
ATP current (homomeric mammalian P2X5): negligible | EC50 (hP2X7^E121A): 360 ± 54.3 µM | nH (Hill coefficient) of ATP (hP2X7^E121A; hP2X7^E121A): 1.34 ± 0.20 | EC50 (zfP2X4^E121A): 89.6 ± 18.1 µM | ATP current (homomeric mammalian P2X6): negligible | nH (Hill coefficient) of ATP (hP2X2^E127A): 1.26 ± 0.15 | EC50 (hP2X1^WT): 0.86 ± 0.16 µM | nH (Hill coefficient) of ATP (hP2X1^WT; hP2X1^WT): 1.04 ± 0.16 | EC50 (hP2X7^WT): 497 ± 44.2 µM | nH (Hill coefficient) of ATP (hP2X7^WT; hP2X7^WT): 1.71 ± 0.19
